Laboratory results taken from article PMC12040169 (PLOS Biology, 2025).
This is one part of the list.

system: T1, C. trachomatis L2/434/Bu expressing GFP (CTL2-GFP); parameters: species or system HeLa; C. trachomatis total inclusion area by high-content imaging, normalised to DMSO; conditions: total inclusion area; 28.5 h, 10 µM; inhibitor
T1 construct: L2/434/Bu GFP intracellular growth in HeLa cells
Procedure, shortened: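 Post-fluorescence-read fixation, DNA staining with Hoechst and high-content imaging; GFP inclusion area and number per well, and nuclei counts, used as proxies for bacterial growth and host viability.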

| Compound | % of control remaining |
| --- | --- |
| Cc1cc(Cc2cccc(Cl)c2)cc(C2CCCN(C(=O)CN3CCCC3=O)C2)n1 (centres unmarked) [CBK286103] | 106.571 |
| CC(=O)Nc1ccc(S(=O)(=O)N2CCN(C(=O)COc3ccc4ccccc4c3)CC2)cc1 [CBK264164] | 105.744 |
| Clc1ccc(Nc2nc(-c3ccoc3)cn3ccnc23)cc1 [CBK066497] | 82.3755 |
| COc1ccc(/N=C2\NC(=O)/C(=C\C=C\c3ccccc3)S2)cc1 [CBK263417] | 104.24 |
| CC1CCN(CC(CS(=O)(=O)c2ccc([N+](=O)[O-])cc2)N2CCC(C)CC2)CC1 (centres unmarked) [CBK267506] | 99.9835 |
| CCc1ccc(CNC2CCN(Cc3cscn3)CC2)o1 [CBK305104] | 74.499 |
| Cc1c(C(C)NCC2CCN(C)CC2)cnn1-c1ccc(C#N)cc1 (centres unmarked) [CBK304058] | 43.6861 |
| Cc1ccccc1C(=O)NC1(C(F)(F)F)C(=O)Nc2c1c(=O)[nH]c(=O)n2CCc1ccccc1 (centres unmarked) [CBK267483] | 106.563 |
| CCOC(=O)CC1C(=O)NCCN1C/C=C\c1ccccc1OC (centres unmarked) [CBK269791] | 100.527 |
| Clc1ccc(-c2ccc(/C=N/c3ccc4oc(-c5ccccc5)nc4c3)o2)cc1 [CBK261969] | 107.422 |
| O=C(O)COc1ccc(Br)cc1/C=C1\N=C(SCc2ccccc2)SC1=O [CBK265725] | 112.552 |
| Cc1ncccc1COC(=O)N1CCSCC1 [CBK200156] | 94.322 |
| CCC1CCCCN1C(=O)c1ccc(C)c(Br)c1 (centres unmarked) [CBK081559] | 85.7145 |
| Cc1nccn1C(C(=O)NCC1(C)COC1)c1ccccc1 (centres unmarked) [CBK281743] | 119.954 |
| C[S+]([O-])c1nc2ccccc2s1 (centres unmarked) [CBK028233] | 64.2092 |
| O=C(CSc1nnc(-c2ccccc2)[nH]1)c1cccc([N+](=O)[O-])c1 [CBK263287] | 73.2228 |
| CC(CNC(=O)C1CCCCC1C(=O)O)c1ccccc1 (centres unmarked) [CBK268028] | 101.027 |
| O=C(NCCn1nc(-c2cccs2)ccc1=O)c1ccccc1F [CBK283835] | 81.3623 |
| O=C(Nc1cccnc1)c1cc(S(=O)(=O)N2CCOCC2)ccc1Cl [CBK262099] | 90.8137 |
| O=C(Oc1n[nH]c2ccccc12)c1ccc(Cl)cc1 [CBK009976] | 77.8473 |
| CCCn1cc(NC(=O)NCc2cc3c(cc2OC)CCC3)nn1 [CBK306614] | 91.6893 |
| Cc1ccccc1Sc1cc(C(F)(F)F)ccn1 [CBK115233] | 93.2665 |
| Cc1cc(NC(=O)c2nn(-c3nc4ccccc4s3)c3ccccc23)no1 [CBK048489] | 93.6776 |
